# The supplement of paper PMC9334596
# Where “and” joins values, the source holds several entries; their conditions need not be identical. Identical values can stand only once. Whole data set: some 5,300 compounds, median “PER2::LUC luminescence relative to vehicle control” near 0.96, cut for the highest 2% near 1.3. This is one part of the list.
# System: mPer2Luc MEF
# Assay: PER2::LUC luminescence relative to vehicle control (fold of vehicle); higher = higher PER2::LUC reporter signal
# Settings: 10 µM
# Procedure, shortened: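 In 384-well plates, ~3000 mPer2Luc reporter mouse embryonic fibroblasts per well were cultured in DMEM with 10% FBS at 37 °C and 5% CO2 for 48 h before compounds from commercial libraries were added at 10 μM. ONE-Glo luciferase readings were taken 24 h and 30 h after treatment. Each value is PER2::LUC luminescence given as fold of vehicle control.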
SMILES,PER2::LUC luminescence (time after treatment 24 h),PER2::LUC luminescence (time after treatment 30 h)
Cc1ccccc1CN1C2=NCCN2C(=O)C2=C1CCN(Cc1ccccc1)C2,0.952,0.903
CC(=O)O[C@H]1CC[C@@]2(C)[C@@H](CC[C@@H]3[C@@H]2CC(=O)[C@]2(C)[C@@H]4[C@H](C[C@@H]32)O[C@]2(CC[C@@H](C)CO2)[C@H]4C)C1,0.96,0.922
COC(=O)/C=C/C(C)=C\C=C\C(C)=C\C=C\C=C(C)\C=C\C=C(C)\C=C\C(=O)O,1.01,0.977
CC(=O)[C@]1(O)Cc2c(O)c3c(c(O)c2[C@@H](O[C@H]2C[C@H](N)[C@H](O)[C@H](C)O2)C1)C(=O)c1ccccc1C3=O,0.963 and 0.984,0.986 and 0.828
O=c1oc2ccccc2c(O)c1Cc1c(O)c2ccccc2oc1=O,1.04 and 0.944,1.07 and 0.963
Cn1ccc2cc(NC(=O)Nc3cccnc3)ccc21,1.15,0.855
Cc1nc(=O)c2cc(CN(C)c3ccc(C(=O)N[C@@H](CCC(=O)O)C(=O)O)s3)ccc2[nH]1,0.801,0.82
COC(=O)CCSCc1ccc(-c2onc(C)c2NC(=O)OC(C)c2ccccc2Cl)cc1 (stereo not given),0.999,0.999
C[C@H](Nc1cc(NS(=O)(=O)N2CCC2)nc(SCc2cccc(F)c2F)n1)[C@@H](O)CO,1.06,0.94
CC(/C=C1\SC(=S)N(CC(=O)O)C1=O)=C\c1ccccc1,0.958,1.09
CC(=O)Oc1cc(OC(C)=O)c2c(c1)O[C@H](c1ccc(OC(C)=O)c(OC(C)=O)c1)[C@H](OC(C)=O)C2,0.969,0.871
Nc1nc(=S)c2[nH]cnc2[nH]1,0.514,0.752
O=C1c2ccccc2C(=O)c2c1ccc(O)c2O,1.03,0.854
CN(C)CCC[C@@]1(c2ccc(F)cc2)OCc2cc(C#N)ccc21,0.914 and 0.716,0.905 and 0.744
CC(=O)N[C@@H](CCC(=O)O)C(=O)O,0.919,0.822
CCCC(=O)Nc1ncnc2c1ncn2[C@@H]1O[C@@H]2COP(=O)(O)O[C@H]2[C@H]1OC(=O)CCC,1.04,1.13
CC1=CC(=O)NS(=O)(=O)O1,0.908,0.814
O=C(CNC(=O)c1ccc(Cl)cc1)NO,1,0.905
CN1CCCC(n2nc(Cc3ccc(Cl)cc3)c3ccccc3c2=O)CC1 (stereo not given),0.596 and 0.594,0.705 and 0.501
CN1CCCCC1CCN1c2ccccc2Sc2ccc([S+](C)[O-])cc21 (stereo not given),0.759 and 0.735,0.773 and 0.766

SMILES,PER2::LUC luminescence (time after treatment 24 h),PER2::LUC luminescence (time after treatment 30 h)
COc1cc(OC)c(C=C2C(=O)Nc3ccccc32)c(OC)c1,0.404,0.575
O=C(O[C@H]1CN2CCC1CC2)N1CCc2ccccc2[C@@H]1c1ccccc1,0.801 and 0.735,0.812 and 0.74
NC(=O)N/N=C/c1ccc([N+](=O)[O-])o1,1.05 and 0.915,0.913 and 0.857
COc1ccc(C2(CNC(=O)c3ccc(NC(=O)c4ccco4)cc3)CCOCC2)cc1,1.06,1.03
COc1c(-c2ccccc2)oc2cc(O)cc(O)c2c1=O,1.02,0.951
O=S(=O)(c1ccccc1)c1cnc2c(N3CCNCC3)cccc2c1,0.884,0.797
CN(NC(=O)CC(=O)NN(C)C(=S)c1ccccc1)C(=S)c1ccccc1,1.68,1.1
CC(C)C[C@H](NC(=O)[C@H](CCCCN)NC(=O)[C@H](CCCNC(=N)N)NC(=O)[C@H](C)NC(=O)[C@H](CO)NC(=O)[C@H](CCCCN)NC(=O)[C@H](CCCNC(=N)N)NC(=O)[C@H](C)NC(=O)CNC(=O)[C@@H](NC(=O)[C@H](Cc1ccccc1)NC(=O)CNC(=O)CNC(=O)[C@@H](N)Cc1ccccc1)[C@@H](C)O)C(=O)N[C@@H](C)C(=O)N[C@@H](CC(N)=O)C(=O)N[C@@H](CCC(N)=O)C(=O)O,1.05,0.93
C=C1C(=O)O[C@H](CCCCCCCC)[C@H]1C(=O)O,1.05,1
COc1ccc(CCN2CN=C(SCc3ccc(Cl)cc3)NC2)cc1OC,0.912,0.83
C=CCCCCCCCCCCCC(O)CC(O)CO (stereo not given),0.967,0.789
CN(C)C(=N)N=C(N)N,1.07,1.16
O=C1c2ccccc2-n2c1nc1ccccc1c2=O,0.998,0.885
CO[C@@H]1[C@@H](OC(N)=O)[C@@H](O)[C@H](Oc2ccc3c(O)c(NC(=O)c4ccc(O)c(CC=C(C)C)c4)c(=O)oc3c2C)OC1(C)C,0.851,0.977
O=Nc1c(-c2c(O)[nH]c3cc(Br)ccc23)[nH]c2ccccc12,0.663,0.788
C=C=CCNC(=O)c1ccc(F)cc1,0.754,0.841
CC(=O)Oc1cccc(O)c1,0.741 and 0.687,1.09 and 0.878
CCN1CCN(C(=O)N[C@@H](C(=O)N[C@@H]2C(=O)N3[C@@H]2SC(C)(C)[C@@H]3C(=O)O)c2ccccc2)C(=O)C1=O,0.919,0.832
CC(C)[C@H](CO)Nc1nc(Sc2cccc(N)c2)c2ncn(C(C)C)c2n1,0.582,0.686
OCCN1CCN(CCCN2c3ccccc3Sc3ccc(Cl)cc32)CC1,0.659,0.622
